Experimental data taken from PubChem BioAssay AID686978 (National Center for Advancing Translational Sciences (NCATS), 2013).
Hit rate of the full screen: of about 420,000 compounds, about 64,000 (15%) were called active. This list was built around the results that the source calls inconclusive (neither active nor inactive); the mix of calls is not that of the screen. The call rests on the fitted dose curve; in most records, active means well fitted inhibition curve with a large enough effect; inconclusive means small, poorly fitted or top-dose-only effect; inactive means flat fitted curve, though single readings scatter. No potency is given beside an inconclusive call; the fits are too rough.
On the % scale 0 is the no-effect control and ±100 the full control effect; potency means the concentration at half of the fitted maximal effect; tags describe the fitted curve by direction and shape.

Test: qHTS for Inhibitors of human tyrosyl-DNA phosphodiesterase 1 (TDP1): qHTS in cells in absence of CPT; further: nearly all actives have a fitted effect of over 55% in size
Settings: DT40 Tdp1-/- hTDP1 cells, no CPT, ATP luminescence, 48 h; activity change, negative = growth inhibition: at 46.2 µM (top of the series)
Procedure, shortened: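 Compound effects on proliferation are scored in DT40 Tdp1-/-;hTDP1 cells in the absence of CPT. ATP levels (CellTiter-Glo luminescence) are recorded after a ≥48 hr, 37 °C incubation.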
In the case of CCCCCCCCC/C(=N\O)c1ccccn1, the Potency is reported as active: 23.1 µM.
With O=C(N/N=C/c1ccccc1Cl)c1n[nH]c2c1CCCC2 the Potency was inconclusive [inhibitor, partial curve, poor fit].
With Fc1ccc(N=C2NN=C(c3cc(F)ccc3F)CS2)cc1 the Potency was active: 14.6 µM.
For CCOC(=O)C1=C(N)c2ccccc2CC1C(C)C (configuration not stated), the Potency was inconclusive [inhibitor, partial curve].
For C[C@@H]1CN([C@H](C)CO)C(=O)CCCn2nncc2CO[C@@H]1CN(C)S(=O)(=O)c1cccc(F)c1, the “activity change, negative = growth inhibition” value was inactive: -5.81%.
With CSc1nnc(Cn2c(=O)sc3ccccc32)n1CCc1ccccc1 the Potency was inconclusive [inhibitor, single point].
For C=C(C)Cn1c(SCC(=O)NCc2ccco2)nc2sc3c(c2c1=O)CCC3, the Potency was inconclusive [inhibitor, single point].
For COc1ccc(-n2nc(C(=O)NCC(=O)Nc3cccc(Cl)c3)c3ccccc3c2=O)cc1, the Potency was inconclusive [inhibitor, partial curve].
For COc1cccc(Cn2c(SCc3ccc(C(=O)N4CCCCC4)cc3)nc3ccncc32)c1, the Potency was active: 20.6 µM.
For Cc1ccc(C(=O)Nn2cnnc2)cc1Cl, the “activity change, negative = growth inhibition” value was inactive: -12.1%.
For O=C(Nc1ncccc1O)c1cc2ccccc2o1, the Potency was inconclusive [inhibitor, single point].
In the case of COc1ccc(N(CCC#N)S(=O)(=O)c2ccc(Cl)cc2)cc1, the “activity change, negative = growth inhibition” value is reported as inactive: -15.6%.
With CCOc1ccccc1C(=O)NC(C(=O)N(C)Cc1ccc2c(c1)OCO2)C(C)C (configuration not stated) the Potency was inconclusive [inhibitor, single point].
In the case of Cc1c(NC(=O)c2ccc3c(c2)C(=O)N(CC2CCCO2)C3=O)cccc1C(=O)O (configuration not stated), the “activity change, negative = growth inhibition” value is reported as inactive: -0.96%.
For CCOC(=O)C(C)N(c1ccccc1Cl)S(C)(=O)=O (configuration not stated), the “activity change, negative = growth inhibition” value was inactive: -1.47%.
For CCOC(=O)C1=C(COC(=O)/C=C/c2ccc([N+](=O)[O-])cc2)NC(=O)NC1C (configuration not stated), the “activity change, negative = growth inhibition” value was inactive: -7.99%.
With O=C(CCCN1C(=O)S/C(=C\C=C\c2ccccc2)C1=O)Nc1ccc(C(=O)O)cc1 the “activity change, negative = growth inhibition” value was inactive: 0.907%.
With CCCN1CCN(S(=O)(=O)c2ccc3c(c2)NC(=O)C(C)C(=O)N3)CC1 (configuration not stated) the activity change, negative = growth inhibition was inconclusive: -30.9% [inhibitor].
In the case of Cc1ccc(OCC(=O)NC2CCCC(C)C2C)c([N+](=O)[O-])n1 (configuration not stated), the “activity change, negative = growth inhibition” value is reported as inactive: -8.55%.
In the case of Cc1ccc(C(=O)NC(NCc2ccccc2)C(Cl)(Cl)Cl)cc1 (configuration not stated), the “activity change, negative = growth inhibition” value is reported as inactive: -6.7%.
For CCCCOc1ccc(S(=O)(=O)N2CCN(c3ccc(N4CCN(CC)CC4)nn3)CC2)cc1, the Potency was inconclusive [inhibitor, single point].
For CSc1cccc(NC(=S)N(Cc2ccc(C)cc2)Cc2cccnc2)c1, the Potency was active: 20.6 µM.
